According to PubChem BioAssay AID1468 (National Center for Advancing Translational Sciences (NCATS), 2008):
Where “and” joins values, the source holds several entries; their conditions need not be identical. Identical values can stand only once. Out of some 280,000 compounds screened, about 1,100 (0.39%) were called active. Inconclusive means that the source gave no clear call. Such entries were picked first, then a sample of the others. The call rests on the fitted dose curve; in most records, active means well fitted inhibition curve with a large enough effect; inconclusive means small, poorly fitted or top-dose-only effect, or effect the other way; inactive means flat fitted curve, though single readings scatter. Potencies of inconclusive entries are doubtful fits and often do not repeat.

Target: Microtubule-associated protein tau (Homo sapiens) (UniProt P10636)
UniProt P10636, sequence (P10636 whole entry, looked up): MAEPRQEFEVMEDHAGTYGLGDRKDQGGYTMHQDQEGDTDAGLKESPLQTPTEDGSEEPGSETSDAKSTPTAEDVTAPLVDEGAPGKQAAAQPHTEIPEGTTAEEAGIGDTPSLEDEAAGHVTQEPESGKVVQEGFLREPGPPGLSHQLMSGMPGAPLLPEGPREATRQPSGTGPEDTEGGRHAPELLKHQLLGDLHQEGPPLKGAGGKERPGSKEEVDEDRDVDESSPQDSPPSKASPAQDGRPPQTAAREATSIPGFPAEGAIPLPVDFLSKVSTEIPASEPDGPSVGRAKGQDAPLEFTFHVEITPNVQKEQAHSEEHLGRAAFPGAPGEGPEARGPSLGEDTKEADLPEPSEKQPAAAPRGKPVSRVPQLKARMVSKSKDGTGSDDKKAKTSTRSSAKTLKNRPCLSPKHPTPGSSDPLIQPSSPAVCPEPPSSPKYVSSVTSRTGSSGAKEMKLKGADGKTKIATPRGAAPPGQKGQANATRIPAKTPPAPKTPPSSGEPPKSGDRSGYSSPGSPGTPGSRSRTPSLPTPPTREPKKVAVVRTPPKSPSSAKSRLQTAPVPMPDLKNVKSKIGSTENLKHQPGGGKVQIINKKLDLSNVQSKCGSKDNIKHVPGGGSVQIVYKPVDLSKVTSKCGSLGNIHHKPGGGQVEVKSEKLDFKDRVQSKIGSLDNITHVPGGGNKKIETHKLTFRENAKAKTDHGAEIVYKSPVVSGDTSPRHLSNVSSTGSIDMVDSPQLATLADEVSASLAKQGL
Experiment: qHTS for Inhibitors of Tau Fibril Formation, Fluorescence Polarization; further: nearly all actives have a fitted effect of over 55% in size
Settings: K18 P301L tau heparin fibrillization, Alexa594 FP, 6 h; series mostly up to 57.7 µM
How it was run: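 Heparin (20 uM) drove fibril formation of recombinant tau K18 P301L, 15 uM unlabeled with 0.24 uM Alexa 594 label, for 6 hr at 37 C in 100 mM sodium acetate pH 7. Fluorescence polarization (555/632 nm) read 1 hr after 30 uM ThT.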
Potency means the concentration at half of the fitted maximal effect; tags describe the fitted curve by direction and shape.

Compound | Potency
CCOC(=O)CN1CC23C=CC(O2)C(C(=O)NCc2ccc(C)cc2)C3C1=O (stereo not drawn) | inactive
Cc1ccccc1CNC(=O)CN1C(=O)CCCc2ccccc21 | inactive
O=C(COc1ccccc1)N(Cc1cccnc1)c1nc2c(F)cc(F)cc2s1 | inconclusive: 14.1 µM [inhibitor, partial curve]
CCN(CC)CCNC(=O)c1ccc(NC(=O)c2ccc(Cl)c(S(=O)(=O)N3CCCCCC3)c2)cc1 | inconclusive: 1.78 µM [inhibitor, full curve]
CC1CCN(C(=O)Cn2cc(SCC(=O)NCc3ccc(F)cc3)c3ccccc32)CC1 | inconclusive: 39.8 µM [activator, single point]
COc1ccc(C(=O)/C=C/Sc2nc3ccccc3o2)cc1 | inconclusive: 22.4 µM [inhibitor, single point]
CCN1/C(=C\c2ccc3ccccc3[n+]2CC)Sc2cc(C)ccc21 | inconclusive: 31.6 µM [inhibitor, partial curve]
CCOc1ccc(NS(=O)(=O)c2ccc(OC)c(C)c2)cc1 | inactive
CC1(C)Cc2c(cnn2-c2ccccc2)-c2c1c1ccccc1n2CC(O)CCl (stereo not drawn) | inconclusive: 17.8 µM [activator, partial curve]
O=c1c2c3c(sc2nc2n1CCCCC2)CCCCC3 | inactive
COc1ccc(OC)c(-n2cc3c(=O)n(C)c(=O)n(C)c3c2)c1 | inconclusive: 11.2 µM [inhibitor, partial curve, poor fit]
C=CC(C)(C)c1[nH]c2ccccc2c1C1=C(O)C(=O)C(c2c[nH]c3c(CC=C(C)C)cccc23)=C(O)C1=O | inconclusive: 39.8 µM [inhibitor, single point]
COc1cc(/C=N/N=C(N)N)ccc1OCc1ccc(Cl)cc1 | inactive
CNC1=C(Br)C(=O)c2ccncc2C1=O | inconclusive: 39.8 µM [inhibitor, single point]
CCN(CC)S(=O)(=O)c1ccc2oc(C(=O)O)c(C)c2c1 | inactive
CN(C)C(=S)c1ccccc1 | inactive
CN(C)S(=O)(=O)Oc1ccsc1C(=O)Nc1ccc(Cl)cc1 | inactive
CCc1ccc(NC(=O)Cn2c(=O)c3cccn3c3ccccc32)cc1 | active: 20 µM
COc1cc(CN2CCCC(CCC(=O)NCc3ccc(C)o3)C2)cc2c1OCO2 (stereo not drawn) | inactive
CN(C)c1cc(N/N=C\c2ccccc2)nc(N(C)C)n1 | inactive
Cn1c(=O)oc2cc(S(=O)(=O)NC(CC(=O)O)c3cccc(Br)c3)ccc21 (stereo not drawn) | inactive
COc1cc(/C=N/NC(N)=O)cc(Br)c1OCc1ccccc1C | inconclusive: 0.501 µM [inhibitor, full curve, poor fit]
Cc1cc(NC(=O)Nc2ccc3c(ccn3C)c2)sn1 | inconclusive: 1.26 µM [activator, full curve]

Compound | Potency
Nc1nc2cc(S(=O)(=O)NC3=NCCCCC3)ccc2s1 | inconclusive: 7.08 µM [inhibitor, partial curve]
CCOC(=O)c1ccoc1CSCc1ccc(C(=O)OC)o1 | inconclusive: 39.8 µM [inhibitor, single point]
CCCCCCNC(=O)Nc1ccc(S(=O)(=O)Nc2ccc(CCNC[C@H](O)COc3ccc(O)cc3)cc2)cc1 | inconclusive: 17.8 µM [inhibitor, partial curve, poor fit]
COc1cc(C(=O)Nc2ccc3nc4n(c(=O)c3c2)CCCCC4)cc(OC)c1OC | inconclusive: 5.01 µM [inhibitor, single point]
O=S(=O)(Nc1ccc2c(c1)OCCO2)c1ccc2oc3ccccc3c2c1 | inconclusive: 20 µM [inhibitor, partial curve]
COc1ccc2nc(/N=C/c3c(C)[nH]n(-c4ccc(C)cc4C)c3=O)sc2c1 | inconclusive: 14.1 µM [inhibitor, partial curve]
Cc1c(C(=O)N2CCCC2)oc2c1-c1nn(CC(=O)NCc3ccc(OC(C)C)cc3)cc1CC2 | inactive
CN(CC(=O)Nc1ccc(OC(F)(F)F)cc1)S(=O)(=O)c1ccc2c(c1)CCC(=O)N2 | inconclusive: 44.7 µM [inhibitor, single point]
Cc1onc(-c2ccccc2Cl)c1C(=O)NCc1ccccc1 | inconclusive: 1.26 µM [inhibitor, full curve]
Fc1ccc(N2CCN(Cc3nnc(-c4ccccc4Cl)o3)CC2)cc1 | inconclusive: 0.199 µM [inhibitor, full curve, poor fit]
NC(=O)C1=C[C@H](c2ccc(C(F)(F)F)cc2)C[C@H](OCCCCO)O1 | inconclusive: 17.8 µM [inhibitor, single point]
COC(=O)/C=C1\S/C(=N/NC(=O)c2ccccc2)NC1=O | inconclusive: 2.82 µM [inhibitor, single point]
O=C(N/N=C/c1ccc(Br)s1)Nc1ccccc1 | inconclusive: 31.6 µM [inhibitor, single point]
COc1ccccc1N1CCN(c2nc3c(S(=O)(=O)c4ccccc4)nnn3c3ccc(Cl)cc23)CC1 | inactive
COc1ccc(NS(=O)(=O)c2cc(NC(=O)c3cccs3)ccc2N2CCCC2)cc1 | inconclusive: 3.55 µM [activator, partial curve, poor fit]
S=c1[nH]nc(-c2ccco2)n1/N=C/C(Cl)=C/c1ccccc1 | inconclusive: 15.8 µM [inhibitor, partial curve]
O=C(Nc1ccccc1-c1nnc(SCc2ccc(Cl)cc2)o1)c1ccccc1 | inconclusive: 6.31 µM [inhibitor, partial curve, poor fit]
O=C(CSc1ccc2c(c1)OCCO2)NCc1ccccc1 | inactive
Cc1ccc(CN2C(=O)N/C(=C/c3ccc(-c4ccc(C(=O)O)cc4)o3)C2=O)cc1 | inactive
O=C(CSc1nc2ccc(NC(=O)CSc3nnnn3Cc3ccccc3)cc2s1)Nc1ccccc1 | inconclusive: 1.26 µM [inhibitor, full curve, poor fit]
CCOC(=O)c1ccc(NC(=O)CN2C(=O)CSC2=O)cc1 | inconclusive: 7.94 µM [inhibitor, single point]
COc1ccc(NC(=O)n2nc(OC(=O)c3cccs3)cc2N)cc1 | inconclusive: 0.708 µM [activator, partial curve, poor fit]
CSc1cccc(-n2nnc(-c3nsc(NC(=O)c4cccs4)n3)c2C)c1 | inconclusive: 11.2 µM [inhibitor, partial curve]

Compound | Potency
CCOC(=O)c1sc(NC(=O)CSc2n[nH]c(C)n2)nc1C | inconclusive: 8.91 µM [inhibitor, single point]
Cc1cccc(NC(=S)NNC(=O)COc2ccc(Cl)cc2Cl)c1 | inactive
COc1ccc(Nc2nc3c(S(=O)(=O)c4ccccc4)nnn3c3ccc(Cl)cc23)cc1 | inconclusive: 25.1 µM [inhibitor, single point]
CCCc1cc(=O)[nH]c(SCC(=O)Nc2ccc(OC(F)F)cc2)n1 | inactive
Cc1ccc(C)c(C(=O)N(Cc2nc(-c3ccc(Cl)cc3)no2)C(C)C)c1 | inconclusive: 7.08 µM [inhibitor, partial curve, poor fit]
COc1cc([N+](=O)[O-])ccc1NC(=S)Nc1cc(C(=O)OC(C)C)cc(C(=O)OC(C)C)c1 | inconclusive: 22.4 µM [inhibitor, partial curve]
COc1ccc(N2CSC3=C(C#N)C(c4cccc(OC)c4OC)CC(=O)N3C2)cc1 (stereo not drawn) | inconclusive: 15.8 µM [inhibitor, partial curve]
CCNc1nc(SCCOc2ccc(Cl)cc2Cl)nc(N(C)C)n1 | inconclusive: 28.2 µM [inhibitor, single point]
Cc1ccc(-n2c(C)cc(=O)cc2C)c(C)c1 | inactive
COc1cc(/C=C(/C#N)c2nc(-c3cc4ccccc4oc3=O)cs2)ccc1O | inactive
Cc1nn(Cc2ccccc2)c2c1C(c1ccncc1)C(C#N)=C(N)O2 (stereo not drawn) | inconclusive: 11.2 µM [inhibitor, partial curve, poor fit]
O=C(O)/C=C/C(=O)NCc1cn(-c2ccccc2)nc1-c1cccc(Br)c1 | inconclusive: 39.8 µM [inhibitor, single point]
CC1CCc2c(sc(NC(=O)CN3CCN(C(=O)c4ccco4)CC3)c2C#N)C1 (stereo not drawn) | inactive
CCSc1ccccc1C(=O)N1CCN(c2nc3ccccc3s2)CC1 | inactive
COC(=O)c1ccc(NC(=O)c2cnn(-c3ccc(Cl)cc3)c2C2CCN(C(=O)OC(C)(C)C)CC2)cc1 | inconclusive: 28.2 µM [inhibitor, single point]
Oc1ccc(Br)cc1-c1cc(-c2ccccc2)n[nH]1 | inconclusive: 10 µM [inhibitor, partial curve]
CCCn1c(=O)sc2cc(NC(=O)c3ccccc3Cl)ccc21 | inconclusive: 39.8 µM [inhibitor, single point]
CCCCC/C=C/C=C1/C(=O)C=C[C@@H]1C/C=C\CCCC(=O)O | inconclusive: 39.8 µM [inhibitor, single point] and inconclusive: 20 µM [inhibitor, partial curve]
Cc1ccc(C(=O)NCC(c2ccc(Cl)cc2)N2CCCCC2)cc1 (stereo not drawn) | inactive
CCc1ccc(NC(=O)C2CCCN(S(=O)(=O)c3ccc4c(c3)oc(=O)n4C)C2)cc1 (stereo not drawn) | inconclusive: 39.8 µM [inhibitor, single point]
CC(C)NC(=O)COc1ccc(S(=O)(=O)N(C)Cc2ccccc2)cc1 | inactive
CN(Cc1ccccc1)C(=O)COC(=O)C1=NNC(=O)CC1 | inconclusive: 0.0251 µM [inhibitor, full curve, poor fit]
